Source: PubChem BioAssay AID1345083 (National Center for Advancing Translational Sciences (NCATS), 2018)
Values joined by “and” are separate entries in the source; they are usually repeats but may differ in a detail not shown here. Identical values can stand only once. The campaign covered roughly 94,000 compounds. About 6,200 (6.6%) were called active. Inconclusive means that the source gave no clear call. Such entries were picked first, then a sample of the others. The call rests on the fitted dose curve; in most records, active means well fitted inhibition curve with a large enough effect; inconclusive means small, poorly fitted or top-dose-only effect; inactive means flat fitted curve, though single readings scatter. A potency beside an inconclusive call is a rough fit, not a confirmed value.

assay: Cytotoxic Profiling in HEK 293 Cell Line of Diverse Libraries Using Quantitative High-Throughput Screening; conditions: HEK 293 viability, ATP luminescence (CellTiter-Glo), 48-72 h; series mostly up to 115 µM; further: nearly all actives have a fitted effect of over 60% in size
Procedure, shortened: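 Read-out: CellTiter-Glo ATP luminescence. Cells: HEK 293, 250 cells/well. Exposure: 48 or 72 hr, 37 degree Celsius.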
Potency means the concentration at half of the fitted maximal effect; tags describe the fitted curve by direction and shape.

| SMILES | Potency |
| --- | --- |
| O=C([C@@H]1C[C@H](F)CN1C(=O)Cc1ccc(OC(F)(F)F)cc1)N1CCCCC1 | inactive |
| COCCN1C[C@H]2COc3cc(OC)ccc3[C@H]2N(C(=O)c2ccccc2OC)CCC1=O | inconclusive: 79.4 µM [inhibitor, single point] |
| O=C(NCCCc1nc2ccccc2[nH]1)C1CC(=O)N(c2n[nH]c3ccccc23)C1 (stereo not given) | inactive |
| Cc1cc(=O)n(CC(=O)Nc2ccc(C)c(F)c2)c(N2CCOCC2)n1 | inconclusive: 22.4 µM [inhibitor, single point] |
| CCc1cccc(NC(=O)c2ccc(Cn3ccn4nc5c(c4c3=O)CCCC5)cc2)c1 | inconclusive: 39.8 µM [inhibitor, full curve, poor fit] |
| O=C1CCCN1c1ccc(Cn2ccn3nc(-c4ccccc4)c(CO)c3c2=O)cc1 | inconclusive: 44.7 µM [inhibitor, partial curve] |
| COc1cccc(CN2C[C@@H](CO)[C@H](NC(=O)c3ccccc3)C2)c1 | active: 35.5 µM |
| O=C(NCCc1ccc(Cl)cc1)c1cc(-c2ccccc2)c2nncn2n1 | inconclusive: 50.1 µM [inhibitor, partial curve, poor fit] |
| O=C(Nc1cccc(F)c1)N1CCc2c(c3ccccc3n2CC2CC2)C1 | active: 44.7 µM |
| O=C1CC(c2ccccc2)N(C(=O)C2CC2)CCCN(C(=O)Cc2c[nH]c3ccccc23)CCN1 (stereo not given) | inactive |
| Clc1ccccc1CN1CC[C@H](c2nnc(-c3ccccc3)o2)C1 | inactive |
| CC(C)C1=NOC2(CCN(Cc3ccc(Cl)cc3)CC2)C1 | inconclusive: 89.1 µM [inhibitor, partial curve, poor fit] |
| O=C1c2cccnc2OC2(CCCC2)CN1CCOc1ccccc1 | inconclusive: 39.8 µM [inhibitor, single point] |
| Cc1cnc(CCNC(=O)C2(c3ccccc3)CC2)n1C1CCCCCC1 | active: 39.8 µM |
| COc1ncccc1-c1cc2c(nc1OC)nc(CC1CC1)n2C | inconclusive: 112 µM [inhibitor, partial curve, poor fit] |
| COc1ccccc1CN1CCCn2nc(C)c(-c3cccnc3N3CCOCC3)c21 | inconclusive: 100 µM [inhibitor, partial curve, poor fit] |
| COc1cccc(-c2cc(C3CCN(C(=O)Nc4cccc(C)c4)CC3)[nH]n2)c1 | inconclusive: 50.1 µM [inhibitor, partial curve, poor fit] |
| CCCS(=O)(=O)N1CCC(c2noc(COc3ccc(C)cc3)n2)CC1 | inconclusive: 50.1 µM [inhibitor, partial curve, poor fit] |
| c1csc(-c2ccnc(N[C@H]3CO[C@H]4[C@@H]3OC[C@@H]4NCC3CCCCC3)n2)c1 | inconclusive: 15.8 µM [inhibitor, full curve, poor fit] |
| COc1cccc(-c2ccc(-c3nc(C4CCOC4)no3)o2)c1 (stereo not given) | inconclusive: 50.1 µM [inhibitor, partial curve, poor fit] |
| Cc1ccc(C2Cn3nnc(C(=O)N4CCC(C(=O)Nc5cc(F)cc(F)c5)CC4)c3CO2)cc1 (stereo not given) | inactive |
| CCn1c(CO)nnc1C1CC(NC(=O)c2nnc3nc(C)ccn23)C1 (stereo not given) | inactive |

| SMILES | Potency |
| --- | --- |
| CCC(=O)N1Cc2ccccc2CC2(CCN(CC3CCOCC3)C2)C1 (stereo not given) | inactive |
| O=C(NCc1nc(-c2cccc(F)c2)c(-c2ccccn2)[nH]1)[C@@H]1C[C@@H](O)CN1 | inconclusive: 35.5 µM [inhibitor, full curve, poor fit] |
| CCOc1ccc2ccccc2c1C(C(=O)O)N1CCN(CC2CC2)CC1 (stereo not given) | inactive |
| COc1cccc(CC(=O)N2CCC(c3nc(CCOc4ccc(F)cc4)no3)C2)c1 (stereo not given) | inconclusive: 56.2 µM [inhibitor, partial curve, poor fit] |
| O=C1CCN(CC(O)COc2ccccc2)c2ccccc2CN1C1CCCC1 (stereo not given) | inconclusive: 50.1 µM [inhibitor, partial curve, poor fit] |
| C=CCn1nc(C(=O)N2CCOCC2)c2c1CCC(NCC1(c3ccccc3)CCOCC1)C2 (stereo not given) | inactive |
| O=C(N[C@H]1[C@@H]2CCO[C@@H]2[C@@H]1C1CCCC1)c1ccccc1OC(F)F | inconclusive: 50.1 µM [inhibitor, partial curve, poor fit] |
| Cc1nnc2ccc(N3CCN(C(=O)c4cccnc4)CC3)nn12 | inactive |
| COC(=O)CN(C)Cc1cn(-c2ccc(C)cc2)nc1-c1cccc(C)c1 | inactive |
| CCC1Oc2ccc(NC(=O)c3ccccc3F)cc2CN(CCc2ccc(OC)c(OC)c2)C1=O (stereo not given) | inconclusive: 56.2 µM [inhibitor, partial curve, poor fit] |
| Cc1ccc(-n2nc3n(c2=O)CCN(C(=O)c2ccccc2Cl)C3)cc1 | inconclusive: 100 µM [inhibitor, partial curve, poor fit] |
| COCCC(=O)NCC(=O)N1CCCCCNC(=O)CC1c1ccccc1 (stereo not given) | inactive |
| Cc1csc(NC(=O)c2nc3c(o2)CCN(Cc2ccccc2F)CC3)n1 | inconclusive: 100 µM [inhibitor, partial curve, poor fit] |
| Cn1nccc1C(=O)NC1CCCN(c2cc(-c3ccc(F)cc3)[nH]n2)C1 (stereo not given) | inconclusive: 50.1 µM [inhibitor, partial curve, poor fit] |
| O=C(c1ccc(Br)cc1)N1CCN(c2cc(-c3ccccc3)[nH]n2)CC1 | inconclusive: 56.2 µM [inhibitor, partial curve, poor fit] |
| COC(=O)[C@@H]1Cc2c[nH]c3cccc(c23)[C@H](CC(C)C)N1 | inconclusive: 158 µM [inhibitor, single point] |
| CCOc1ccc2c(n1)CCN(C(=O)c1cc(C)nn1C)C2 | inactive |
| Cc1cc(C)cc(-c2ccc(CN3CCCC(c4nc5ccc(F)cc5c(=O)[nH]4)C3)cc2)c1 (stereo not given) | active: 39.8 µM and inconclusive: 22.4 µM [inhibitor, full curve, poor fit] |
| Cc1nn(-c2ccccc2)c2c1C(C1CC1)N(C1CCN(Cc3ccc(C#N)cc3)CC1)C2=O (stereo not given) | inactive |
| Cc1cccc(-c2ccc3c(c2)C(=O)N2CC[C@H](NC(=O)C4CCCC4)[C@H]2C(=O)N3)c1C | inconclusive: 112 µM [inhibitor, partial curve, poor fit] |
| CC1Oc2ccc(NC(=O)COc3ccccc3)cc2CN(Cc2ccccc2Cl)C1=O (stereo not given) | active: 25.1 µM |
| CCCCc1ncc(-c2c(-c3ccccc3)ncn2CCC2CCCN2C)[nH]1 (stereo not given) | inconclusive: 89.1 µM [inhibitor, single point] |

| SMILES | Potency |
| --- | --- |
| COc1cccc(-c2ccc(CN3CCCC(c4nc5ccc(C)cc5c(=O)[nH]4)C3)cc2)c1 (stereo not given) | active: 20 µM and active: 25.1 µM |
| O=C(CN1C(=O)NC2(CCCCC2)C1=O)Nc1ccc(C(F)(F)F)cc1 | active: 28.2 µM |
| CCC(C)C(=O)Nc1c(C(=O)OC)n(CC2CCCO2)c2ncc(NC(C)CO)cc12 (stereo not given) | inconclusive: 89.1 µM [inhibitor, single point] |
| O=c1cc(N2CCOCC2)oc2c(Nc3ccccn3)nccc12 | inactive |
| COc1ccc(C(=O)NC2CCCN(c3cc(-c4ccccc4)[nH]n3)C2)cc1 (stereo not given) | inconclusive: 50.1 µM [inhibitor, partial curve, poor fit] |
| O=C(NCCCc1nc2ccccc2[nH]1)C1CCCN(C2CCCC2)C1 (stereo not given) | inactive |
| Cc1nc2c(c(-c3ccc(O)cc3)n1)CN(C(=O)C(C)(C)C)CC2 | inconclusive: 56.2 µM [inhibitor, full curve, poor fit] |
| Cc1ccc(NC(=O)Cn2ccn3nc4c(c3c2=O)CCCC4)cc1Cl | inactive |
| Cc1ccc(-c2nnc(C3CN(C(=O)c4ccccc4)CC34CCOCC4)o2)cc1 (stereo not given) | inactive |
| CC(C)c1nc(C2Cc3ccccc3N2C(=O)NC2CCCC2)no1 (stereo not given) | inconclusive: 50.1 µM [inhibitor, partial curve, poor fit] |
| O=C(NCCCN1CCCCC1)c1ccc2c(c1)N(S(=O)(=O)c1ccccc1)CC2 | inconclusive: 79.4 µM [inhibitor, partial curve] |
| COc1ccc(CC(=O)Nc2ccc([C@H]3OCC(=O)N(C4CCOCC4)[C@@H]3CO)cc2)cc1 | inactive |
| CC1Oc2ccc(NC(=O)c3ccc(F)cc3F)cc2CN(CCc2ccc(F)cc2)C1=O (stereo not given) | inconclusive: 63.1 µM [inhibitor, partial curve, poor fit] |
| COc1ccc2[nH]c3c(c2c1)CCNC31CCN(S(=O)(=O)c2c(C)noc2C)CC1 | inconclusive: 10 µM [inhibitor, full curve, poor fit] |
| CN1CCCN(c2ccc(C(=O)N3CCC(N4CCOCC4)CC3)cn2)CC1 | inactive |
| COc1cccc(CNC(=O)C2CCCN2Cc2ccc(-c3cccc(OC)c3)cc2)c1 (stereo not given) | inconclusive: 50.1 µM [inhibitor, partial curve, poor fit] |
| COCC(=O)NC[C@@H]1C=C(C)[C@H](CC(=O)N2CCN(c3ccccn3)CC2)C[C@H]1C(C)C | inconclusive: 100 µM [inhibitor, single point] |
| COc1ccc(-n2cc(CN3CCN(C)C(C)C3)c(-c3cccc(F)c3)n2)cc1 (stereo not given) | active: 35.5 µM |
| CC(C)c1noc(-c2ccn3c(CNC(=O)c4cccc(N(C)C)c4)nnc3c2)n1 | inconclusive: 89.1 µM [inhibitor, partial curve, poor fit] |
| O=C(NCC1CC1)c1ccc2nnc(-c3ccc(Cl)cc3)n2c1 | inactive |
| Cc1cccc(CNC(=O)c2ccc3c(c2)N(C)C2CCCCN2C3=O)c1 (stereo not given) | inconclusive: 50.1 µM [inhibitor, partial curve, poor fit] |
